In publication PMC4336329 (PLoS ONE, 2015):
In all, about 310,000 compounds went through this assay and about 2,200 (0.71%) showed an effect of 50% or more. Effects have a minus sign here. The list shows a part of the results.

Each molecule was assayed against human ether-à-go-go-related gene (hERG) potassium channel (human, UniProt Q12809) (assay: primary screen, population patch clamp on CHO cells stably expressing hERG).
human ether-à-go-go-related gene (hERG) potassium channel, sequence (Q12809 whole entry, looked up): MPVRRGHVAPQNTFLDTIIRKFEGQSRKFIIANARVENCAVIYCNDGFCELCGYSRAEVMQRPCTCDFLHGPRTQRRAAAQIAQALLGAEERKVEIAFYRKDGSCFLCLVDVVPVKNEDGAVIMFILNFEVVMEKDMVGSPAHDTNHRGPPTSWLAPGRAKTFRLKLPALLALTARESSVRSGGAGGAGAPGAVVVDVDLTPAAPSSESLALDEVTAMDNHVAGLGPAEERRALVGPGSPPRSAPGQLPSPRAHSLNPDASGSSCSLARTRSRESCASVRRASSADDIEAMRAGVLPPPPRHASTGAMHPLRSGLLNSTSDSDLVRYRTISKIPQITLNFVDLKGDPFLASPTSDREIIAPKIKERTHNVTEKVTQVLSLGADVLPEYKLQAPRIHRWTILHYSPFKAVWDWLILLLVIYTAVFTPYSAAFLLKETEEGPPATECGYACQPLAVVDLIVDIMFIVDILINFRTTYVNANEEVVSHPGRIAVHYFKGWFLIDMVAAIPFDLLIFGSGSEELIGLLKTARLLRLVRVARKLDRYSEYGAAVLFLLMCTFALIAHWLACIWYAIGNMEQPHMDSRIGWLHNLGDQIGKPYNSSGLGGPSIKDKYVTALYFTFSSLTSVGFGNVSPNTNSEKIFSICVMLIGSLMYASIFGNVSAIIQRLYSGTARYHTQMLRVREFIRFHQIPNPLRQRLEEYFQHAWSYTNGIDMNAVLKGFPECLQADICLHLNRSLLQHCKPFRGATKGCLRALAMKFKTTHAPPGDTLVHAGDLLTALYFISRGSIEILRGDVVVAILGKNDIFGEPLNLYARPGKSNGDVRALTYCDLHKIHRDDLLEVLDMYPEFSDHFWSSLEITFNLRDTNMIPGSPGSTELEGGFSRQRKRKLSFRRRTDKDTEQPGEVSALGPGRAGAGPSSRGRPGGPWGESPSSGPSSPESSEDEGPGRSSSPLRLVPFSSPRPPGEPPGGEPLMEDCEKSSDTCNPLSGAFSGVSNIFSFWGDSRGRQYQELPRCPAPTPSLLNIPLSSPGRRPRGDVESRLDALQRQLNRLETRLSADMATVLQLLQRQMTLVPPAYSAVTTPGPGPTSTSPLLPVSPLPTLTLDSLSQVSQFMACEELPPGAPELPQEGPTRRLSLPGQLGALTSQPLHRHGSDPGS

Q: Which “hERG current change (%, negative = inhibition) at 1uM” value does the source give for COCCCn1c(=O)c2ccccc2c2ccccc2c1=O here?
A: The value was 6.29%.

Q: Which “hERG current change (%, negative = inhibition) at 1uM” value does the source give for Cc1ccc(S(=O)(=O)N2CCCCCC2)cc1[N+](=O)[O-] here?
A: Its value is 8.47%.

Q: How did the “hERG current change (%, negative = inhibition) at 1uM” value turn out when Cc1ccc(OCC(=O)NC(=S)Nc2ccc(Br)c(C)n2)cc1 was run?
A: Its value is 5.89%.

Q: For CCOC(=O)C1C(c2ccc(O)cc2)NC(=O)NC1(O)C(F)(F)F (stereo not drawn), which “hERG current change (%, negative = inhibition) at 1uM” value is on record?
A: The value was 6.45%.

Q: With Cc1cc(C)n2nc(CNS(=O)(=O)c3ccc(F)cc3)nc2n1 as the molecule, how does the “hERG current change (%, negative = inhibition) at 1uM” value read?
A: The value was 14%.

Q: How did the “hERG current change (%, negative = inhibition) at 1uM” value turn out when O=C(O)c1ccc(/C=N/NC(=O)C2CC2(c2ccccc2)c2ccccc2)cc1 (stereo not drawn) was run?
A: Its value is 15.3%.

Q: CC(C)C(c1nnnn1C1CCCC1)N1CCc2ccccc21 (stereo not drawn) was tested. Which “hERG current change (%, negative = inhibition) at 1uM” value did it give?
A: Its value is 7.72%.

Q: How did the “hERG current change (%, negative = inhibition) at 1uM” value turn out when COc1ccc(C(NC(=O)c2ccco2)c2ccc(OC)c(OC)c2)cc1 (stereo not drawn) was run?
A: The value was 11.1%.

Q: Cn1c(O)c(/C=C2\C=c3ccccc3=NC2=O)c(=O)n(C)c1=O was tested. Which “hERG current change (%, negative = inhibition) at 1uM” value did it give?
A: Its value is 10.3%.

Q: COc1cccc2[nH]c3c(N4CCC(C)CC4)ncnc3c12 was tested. Which “hERG current change (%, negative = inhibition) at 1uM” value did it give?
A: The value was -2.29%.

Q: For C=CCn1c(SCC(=O)c2ccc(Cl)s2)nc2ccccc2c1=O, which “hERG current change (%, negative = inhibition) at 1uM” value is on record?
A: The value was 12.7%.

Q: With CC1Cc2ccccc2N1C(=O)COC(=O)c1cccc(Br)c1 (stereo not drawn) as the molecule, how does the “hERG current change (%, negative = inhibition) at 1uM” value read?
A: The value was 12.6%.

Q: Which “hERG current change (%, negative = inhibition) at 1uM” value does the source give for CC(C)(C)c1ccccc1OCC(=O)NCCC(=O)O here?
A: Its value is 4.06%.

Q: With Cc1ccc(NC(=S)NN2CCN(C)CC2)cc1 as the molecule, how does the “hERG current change (%, negative = inhibition) at 1uM” value read?
A: Its value is 8.77%.

Q: Which “hERG current change (%, negative = inhibition) at 1uM” value does the source give for CN(C)CCCC1(O)c2ccccc2CCc2ccccc21 here?
A: The value was 8.53%.

Q: For O=C(CN(CC1CCCO1)C(=O)CNS(=O)(=O)c1ccc(Cl)cc1)NCC1CCCO1 (stereo not drawn), which “hERG current change (%, negative = inhibition) at 1uM” value is on record?
A: Its value is 12.5%.

Q: How did the “hERG current change (%, negative = inhibition) at 1uM” value turn out when CC(=O)N1CCN(Cc2nc3cc(NC(=O)c4ccc(F)cc4)ccc3n2C)CC1 was run?
A: The value was 4.31%.

Q: Which “hERG current change (%, negative = inhibition) at 1uM” value does the source give for CN(C)S(=O)(=O)c1ccc(C(=O)Nc2nc(-c3ccccc3)c(C(=O)c3ccccc3)s2)cc1 here?
A: The value was 7.28%.

Q: COc1ccc(CCNC(=O)C(=O)N2CCCCC2)cc1OC was tested. Which “hERG current change (%, negative = inhibition) at 1uM” value did it give?
A: The value was 14.3%.

Q: For CCn1c(SCC(=O)Nc2ccc(-c3nc4ccc(C)cc4s3)cc2)nnc1-c1ccccc1, which “hERG current change (%, negative = inhibition) at 1uM” value is on record?
A: The value was 8.51%.

Q: With Cc1cccc(CNCc2ccccc2)c1.Cl as the molecule, how does the “hERG current change (%, negative = inhibition) at 1uM” value read?
A: The value was -0.918%.

Q: C(=N\Nc1nc(-c2cccnc2)nc2ccccc12)/c1ccccc1 was tested. Which “hERG current change (%, negative = inhibition) at 1uM” value did it give?
A: Its value is 15.3%.

Q: CC(=O)c1cccc(S(=O)(=O)NCC(c2ccco2)N2CCCCC2)c1 (stereo not drawn) was tested. Which “hERG current change (%, negative = inhibition) at 1uM” value did it give?
A: The value was -0.501%.

Q: For COc1ccc(CC(=O)Nc2ccc(-c3noc(COc4ccccc4C)n3)cc2)cc1, which “hERG current change (%, negative = inhibition) at 1uM” value is on record?
A: Its value is 7.17%.

Q: COc1ccccc1NC(=O)COC(=O)c1cnc(C)cn1 was tested. Which “hERG current change (%, negative = inhibition) at 1uM” value did it give?
A: Its value is 14.8%.

Q: With Cc1cc(C)cc(-c2nnc(SCC(=O)NCc3cccs3)o2)c1 as the molecule, how does the “hERG current change (%, negative = inhibition) at 1uM” value read?
A: The value was 10.2%.

Q: For Cc1ccc(C)c(Cn2c3ccccc3c3cnn(CC(=O)NCCCN4CCCCC4)c(=O)c32)c1, which “hERG current change (%, negative = inhibition) at 1uM” value is on record?
A: Its value is -44.3%.

Q: With CCOc1cc(C(=O)OC(C)C(=O)Nc2ncc(Cl)cc2Cl)ccc1OCC(=O)N1CCOCC1 (stereo not drawn) as the molecule, how does the “hERG current change (%, negative = inhibition) at 1uM” value read?
A: Its value is 8.54%.

Q: With O=C(CSc1ccc(-c2cccnc2)nn1)Nc1ccc(Br)cc1 as the molecule, how does the “hERG current change (%, negative = inhibition) at 1uM” value read?
A: The value was -3.94%.

Q: FCCN(CCF)c1cccc(Cl)c1 was tested. Which “hERG current change (%, negative = inhibition) at 1uM” value did it give?
A: The value was 11.2%.

Q: Cn1cc(Br)c(C(=O)N2CCc3ccccc32)n1 was tested. Which “hERG current change (%, negative = inhibition) at 1uM” value did it give?
A: The value was 2.4%.

Q: With CC(C)=NNc1nc(-c2ccccc2)c(C)s1 as the molecule, how does the “hERG current change (%, negative = inhibition) at 1uM” value read?
A: The value was 9.91%.

Q: For CC1CCN(C(=O)c2[nH]cnc2C(=O)NCC(=O)OC(C)(C)C)CC1, which “hERG current change (%, negative = inhibition) at 1uM” value is on record?
A: Its value is 12.5%.

Q: C=CCN1C(=O)CN=C1Nc1ccc(F)cc1 was tested. Which “hERG current change (%, negative = inhibition) at 1uM” value did it give?
A: Its value is 8.84%.

Q: For CC1=NN(C(=O)COc2ccccc2)C(O)(c2cccnc2)C1 (stereo not drawn), which “hERG current change (%, negative = inhibition) at 1uM” value is on record?
A: Its value is 13.6%.

Q: With CCCn1c(N)c(C(=O)CN2CCN(S(=O)(=O)c3cccs3)CC2)c(=O)[nH]c1=O as the molecule, how does the “hERG current change (%, negative = inhibition) at 1uM” value read?
A: The value was 6.26%.

Q: Cc1ccc(CN2CCN(Cc3ccc(O)cc3)CC2CCO)o1 (stereo not drawn) was tested. Which “hERG current change (%, negative = inhibition) at 1uM” value did it give?
A: Its value is 3.81%.

Q: Which “hERG current change (%, negative = inhibition) at 1uM” value does the source give for CCSc1nnc(NC(=O)c2cccc(S(=O)(=O)N(C)c3ccccc3)c2)s1 here?
A: The value was 1.55%.

Q: For Cc1ccc(CCNC(=O)CCS(=O)(=O)c2ccc3c(c2)oc(=O)n3C)cc1, which “hERG current change (%, negative = inhibition) at 1uM” value is on record?
A: Its value is 2%.

Q: How did the “hERG current change (%, negative = inhibition) at 1uM” value turn out when COc1ccc(N2CC(C(=O)Nc3nc4ccccc4s3)CC2=O)cc1 (stereo not drawn) was run?
A: Its value is 7.18%.

Q: How did the “hERG current change (%, negative = inhibition) at 1uM” value turn out when COc1ccc(Cl)cc1NC(=O)C/C(C)=N/NC(=O)CCc1ccccc1 was run?
A: The value was 4.46%.

Q: How did the “hERG current change (%, negative = inhibition) at 1uM” value turn out when CC(C)(C)c1ccc(OCCC(=O)NNC(=O)c2ccncc2)cc1 was run?
A: Its value is -0.888%.

Q: For Cc1nnc(NC(=O)c2ccc(-c3ccc(Cl)cc3)o2)s1, which “hERG current change (%, negative = inhibition) at 1uM” value is on record?
A: The value was 6.31%.

Q: How did the “hERG current change (%, negative = inhibition) at 1uM” value turn out when CC1CCCC(C)N1C(=O)CSc1nnc(-c2c[nH]c3ccccc23)o1 (stereo not drawn) was run?
A: The value was 2.01%.

Q: O=C1CCC(C(=O)N2CCOCC2)CN1Cc1ccc(Cl)cc1 (stereo not drawn) was tested. Which “hERG current change (%, negative = inhibition) at 1uM” value did it give?
A: Its value is 8.34%.
